From paper PMC10063618
Substitutions are numbered along the chain they refer to. These are yes or no findings as the source states them, for the method shown. For part of these data: In cells and extracts the contact can be indirect. Some entries that bind do so weakly or less than the wild type. Where a sequence is shown, tags or fusion partners need not be part of it. Blank lines part the entries; values can stand above or below the binder they belong to.

Tests used:
[1] = target: T1, GFP-FREE1 (transgenic Arabidopsis plants) (Arabidopsis thaliana) (UniProt Q9ASS2); assay: co-IP; GFP-Trap magnetic beads, 2-4 h at 4 °C, on extracts of transgenic plants expressing the GFP fusion; endogenous partner found by immunoblot; IP buffer 50 mM Tris-HCl pH 7.4, 150 mM NaCl, 1 mM MgCl2, 20% glycerol, 0.2% NP-40; some experiments after nitrogen starvation for at least 18 h
T1 sequence: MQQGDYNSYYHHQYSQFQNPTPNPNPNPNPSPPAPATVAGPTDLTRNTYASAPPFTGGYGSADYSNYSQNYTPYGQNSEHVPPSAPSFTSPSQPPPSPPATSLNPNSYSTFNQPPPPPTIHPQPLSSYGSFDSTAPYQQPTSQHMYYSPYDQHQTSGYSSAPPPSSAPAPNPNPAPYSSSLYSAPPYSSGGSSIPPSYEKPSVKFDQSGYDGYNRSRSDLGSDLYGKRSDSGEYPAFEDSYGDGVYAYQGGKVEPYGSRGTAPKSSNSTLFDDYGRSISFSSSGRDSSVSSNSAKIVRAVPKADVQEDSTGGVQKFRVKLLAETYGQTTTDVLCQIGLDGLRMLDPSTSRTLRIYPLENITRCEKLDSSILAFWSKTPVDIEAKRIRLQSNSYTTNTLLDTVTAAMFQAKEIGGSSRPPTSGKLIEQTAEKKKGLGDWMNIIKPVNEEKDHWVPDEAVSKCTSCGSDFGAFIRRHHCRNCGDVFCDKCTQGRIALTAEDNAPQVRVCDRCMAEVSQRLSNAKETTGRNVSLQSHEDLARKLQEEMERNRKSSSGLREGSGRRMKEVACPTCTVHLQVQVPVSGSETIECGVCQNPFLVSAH

[2] = target: T2, YFP-FREE1 (Arabidopsis protoplasts) (Arabidopsis thaliana) (UniProt Q9ASS2); assay: co-IP; GFP-Trap magnetic beads, 2-4 h at 4 °C, on extracts of Arabidopsis protoplasts co-expressing both tagged proteins; IP buffer 50 mM Tris-HCl pH 7.4, 150 mM NaCl, 1 mM MgCl2, 20% glycerol, 0.2% NP-40; YFP only as control
T2 sequence: T1 sequence

[3] = target: T3, CFP-FREE1 (Arabidopsis thaliana) (UniProt Q9ASS2); assay: FRET or BRET; acceptor photobleaching FRET of CFP and YFP fusions in Arabidopsis protoplasts cultured 24 h, Leica SP8
T3 sequence: T1 sequence

[4] = target: T4, BD-FREE1^231-601 (Arabidopsis thaliana) (UniProt Q9ASS2); assay: two-hybrid; pGBKT7 (BD-FREE1 231-601) and pGADT7 co-transformed into yeast AH109; selection on SD lacking His, Trp, Leu with 3AT, or His, Trp, Leu and Ade
T4 sequence: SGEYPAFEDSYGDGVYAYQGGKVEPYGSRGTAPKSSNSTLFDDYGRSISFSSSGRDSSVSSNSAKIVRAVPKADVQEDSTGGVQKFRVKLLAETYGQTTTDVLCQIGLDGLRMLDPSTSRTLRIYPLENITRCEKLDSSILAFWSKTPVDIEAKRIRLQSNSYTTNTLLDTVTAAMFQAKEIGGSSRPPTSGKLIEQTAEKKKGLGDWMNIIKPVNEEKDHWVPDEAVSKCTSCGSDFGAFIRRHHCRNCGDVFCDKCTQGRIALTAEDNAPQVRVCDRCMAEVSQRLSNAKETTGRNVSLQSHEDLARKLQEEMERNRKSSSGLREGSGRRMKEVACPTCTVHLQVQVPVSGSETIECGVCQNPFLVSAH

[5] = target: T5, GFP-FREE1^S530A (Arabidopsis thaliana) (UniProt Q9ASS2); assay: co-IP; GFP-Trap magnetic beads, 2-4 h at 4 °C, on extracts of transgenic plants expressing the GFP fusion; endogenous partner found by immunoblot; IP buffer 50 mM Tris-HCl pH 7.4, 150 mM NaCl, 1 mM MgCl2, 20% glycerol, 0.2% NP-40; some experiments after nitrogen starvation for at least 18 h
T5 sequence: T1 sequence with S530A

B4: AD-KIN10 (enzyme, UniProt Q38997 1-512)
chain: MDGSGTGSRSGVESILPNYKLGRTLGIGSFGRVKIAEHALTGHKVAIKILNRRKIKNMEMEEKVRREIKILRLFMHPHIIRLYEVIETPTDIYLVMEYVNSGELFDYIVEKGRLQEDEARNFFQQIISGVEYCHRNMVVHRDLKPENLLLDSKCNVKIADFGLSNIMRDGHFLKTSCGSPNYAAPEVISGKLYAGPEVDVWSCGVILYALLCGTLPFDDENIPNLFKKIKGGIYTLPSHLSPGARDLIPRMLVVDPMKRVTIPEIRQHPWFQAHLPRYLAVPPPDTVQQAKKIDEEILQEVINMGFDRNHLIESLRNRTQNDGTVTYYLILDNRFRASSGYLGAEFQETMEGTPRMHPAESVASPVSHRLPGLMEYQGVGLRSQYPVERKWALGLQSRAHPREIMTEVLKALQDLNVCWKKIGHYNMKCRWVPNSSADGMLSNSMHDNNYFGDESSIIENEAAVKSPNVVKFEIQLYKTRDDKYLLDLQRVQGPQFLFLDLCAAFLAQLRVL
binding [4]: binds

B5: YFP-ATG8a (protein, UniProt Q8LEM4 1-117)
chain: MAKSSFKISNPLEARMSESSRIREKYPDRIPVIVEKAGQSDVPDIDKKKYLVPADLTVGQFVYVVRKRIKLGAEKAIFVFVKNTLPPTAALMSAIYEEHKDEDGFLYMTYSGENTFG
binding [3]: binds

B6: ATG5 (yeast two-hybrid fusion) (protein, UniProt Q9FFI2 1-337)
chain: MAKEAVKYVWEGAIPLQIHLHKSDVASHPAPPPALVLAPRIGYLPLLIPLIKPYFKDSLPPGEDSIWFDYKGFPLKWYIPTGVLFDLLCAEPERPWNLTIHFRGYPCNILIPCEGEDSVKWNFVNSLKEAQYIINGNCKNVMNMSQSDQEDLWTSVMNGDLDAYTRLSPKLKMGTVEDEFSRKTSLSSPQSQQVVPETEVAGQVKTARIPVRLYVRSLNKDFENLEDVPEIDTWDDISYLNRPVEFLKEEGKCFTLRDAIKSLLPEFMGDRAQTSGEERSIDDTEEADGSREMGEIKLVRIQGIEMKLEIPFSWVVNNLMNPEFYLHISVLVKAPQR
binding [4]: no binding

B7: ATG5 (endogenous) (protein, UniProt Q9FFI2 1-337)
chain: B6 chain
binding [5]: no binding

B8: ATG12b (endogenous) (protein, UniProt Q9LVK3 1-94)
chain: MATESPNSVQKIVVHLRATGGAPILKQSKFKVSGSDKFANVIDFLRRQLHSDSLFVYVNSAFSPNPDESVIDLYNNFGFDGKLVVNYACSMAWG
binding [1]: binds

B9: ATG16 (yeast two-hybrid fusion) (protein, UniProt Q6NNP0 1-509)
chain: MVQEEKAMEAINDALRALRKRHLLEEGAHAPAISALSKPLISQGSEWKEKTEKLETELQQCYKAQSRLSEQLVIEVAESRTSKAILQEKELLINDLQKELTQRREDCTRLQEELEEKTKTVDVLIAENLEIRSQLEEMTSRVQKAETENKMLIDRWMLQKMQDAERLNEANDLYEEMLAKLKANGLETLARQQVDGIVRRNEDGTDHFVESTIPSTCANRIHAHEGGCGSIVFEYNSGTLFTGGQDRAVKMWDTNSGTLIKSLYGSLGNILDMAVTHDNKSVIAATSSNNLFVWDVSSGRVRHTLTGHTDKVCAVDVSKFSSRHVVSAAYDRTIKLWDLHKGYCTNTVLFTSNCNAICLSIDGLTVFSGHMDGNLRLWDIQTGKLLSEVAGHSSAVTSVSLSRNGNRILTSGRDNVHNVFDTRTLEICGTLRASGNRLASNWSRSCISPDDDYVAAGSADGSVHVWSLSKGNIVSILKEQTSPILCCSWSGIGKPLASADKNGYVCTWT
binding [4]: no binding

Next, values leading:

binding [1]: binds
B1: KIN10 (SnRK1α1), endogenous (enzyme, UniProt Q38997 1-512)
chain: B4 chain

binding [2]: binds
B2: KIN10-6HA (enzyme, UniProt Q38997 1-512)
chain: B4 chain

binding [3]: binds
B3: KIN10-YFP (enzyme, UniProt Q38997 1-512)
chain: B4 chain
